Data taken from the RNAGym collection of RNA variant scans (doi:10.1093/nar/gkz1192).
The source gives no read counts; variants with many changes may rest on few reads.

B1: CPEB3 Ribozyme (parent)
chain: UAACAGGGGGCCACAGCAGAAGCGUUCACGUCGCAGCCCCUGUCAGAUUCUGGUGAAUCUGCGAAUUCUGCUGUAUAUCUC

Variants of: B1
Assay: self-cleavage, relative activity (ratio to wild type); higher = more cleavage; in vitro, sequencing
Summary of the method: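 Libraries of CPEB3 self-cleaving ribozyme mutants came from rounds of error-prone PCR and carried barcodes, which DNA sequencing matched to variants. In vitro transcription used T7 RNA polymerase at 37°C for 5 hours, with a further 15 min in DNase I before EDTA stopped the reaction; the ribozymes cleaved during both steps. The RNA was reverse transcribed with template switching and sequenced on Illumina. Relative activity is the cleaved/total read fraction of a variant divided by that of the unmutated ribozyme, averaged over three batches with at least 5 reads.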

Row | Variant | self-cleavage
1 | UAACAGGGGGCCACAGCAGAAGCGUCCACGUCGCAGCCCCUGUCAGAUCCUGGUGAAUCUGCGUAUACUGCUGUAUAUCUC | 0.08
2 | UAACAGGGGGCCACAGCAGAAGCGUCCACGUCGCAGCCCCUGUCAGAUUCAGGCGAAUCUGCGAAUUCUGCUGUAAAUCUC | 0.42
3 | UAACAGGGGGCCACAGCAGAAGCGUCCACGUCGCAGCCCCUGUCAGAUUCCGGUGAAUCUGCGGAUUCUGCUGUACAUCUC | 0.09
4 | UAACAGGGGGCCACAGCAGAAGCGUCCACGUCGCAGCCCCUGUCAGAUUCCGGCGAAUCUGCGAAUUCUGCUGUAUAUCAC | 0.3
5 | UAACAGGGGGCCACAGCAGAAGCGUCCACGUCGCAGCCCCUGUCAGAUUCCGGUGAAUCUGCGAAUCCUGCCGUAUAUCUC | 0.15
6 | UAACAGGGGGCCACAGCAGAAGCGUCCACGUCGCAGCCCCUGUCAGAUUCUGGAGAAUCUGCGAAUUCUGCUGUAUGCCUC | 0.41
7 | UAACAGGGGGCCACAGCAGAAGCGUCCACGUCGCAGCCCCUGUCAGAUUCUGGAGAAUCUGCGAAUUCUGCUGUAUAUCAC | 0.45
8 | UAACAGGGGGCCACAGCAGAAGCGUCCACGUCGCAGCCCCUGUCAGAUUCUGGCGUAUCCGCGAAUUCUGCUGUAAAUCCC | 0.07
9 | UAACAGGGGGCCACAGCAGAAGCGUCCACGUCGCAGCCCCUGUCAGAUUCUGGCGUAUCUGCGAAUUCUGCAGUAUAUCUC | 0.22
10 | UAACAGGGGGCCACAGCAGAAGCGUCCACGUCGCAGCCCCUGUCAGAUUCUGGCGAAUCUGCGAGUUCUGCUGUAUAUCUC | 0.13
11 | UAACAGGGGGCCACAGCAGAAGCGUCCACGUCGCAGCCCCUGUCAGAUUCUGGCGAAUCCGCGAAUUCUGCUGUAUAUCUC | 0.12
12 | UAACAGGGGGCCACAGCAGAAGCGUCCACGUCGCAGCCCCUGUCAGAUUCUGGCGAAUCUGCGAAUUCAGCUGUAUUUCAC | 0.12
13 | UAACAGGGGGCCACAGCAGAAGCGUCCACGUCGCAGCCCCUGUCAGAUUCUGGUGAAACUGCGAAUUCUGCUGUAUAUUUC | 0.19
14 | UAACAGGGGGCCACAGCAGAAGCGUCCACGUCGCAGCCCCUGUCAGAUUCUGGUGAAGCGGCGAAUUCUGCUGUAUAUCUC | 0.19
15 | UAACAGGGGGCCACAGCAGAAGCGUCCACGUCGCAGCCCCUGUCAGAUUCUGGUGAAUCAGCGUAUUCUGCUGUAUAUCUC | 0.11
16 | UAACAGGGGGCCACAGCAGAAGCGUCCACGUCGCAGCCCCUGUCAGAUUCUGGUGAAUCAGCGAAUUCAGCUGUAUAUCUC | 0.12
17 | UAACAGGGGGCCACAGCAGAAGCGUCCACGUCGCAGCCCCUGUCAGAUUCUGGUGAAUCAGCGAAUUCUGCCGUAUAUCUC | 0.33

Row | Variant | self-cleavage
18 | UAACAGGGGGCCACAGCAGAAGCGUCCACGUCGCAGCCCCUGUCAGAUUCUGGUGAAUCCGCGAACUCCGCUGUAUAUCUC | 0.1
19 | UAACAGGGGGCCACAGCAGAAGCGUCCACGUCGCAGCCCCUGUCAGAUUCUGGUGAAUCCGCGAAUUCUGCUGCAUAUCUC | 0.39
20 | UAACAGGGGGCCACAGCAGAAGCGUCCACGUCGCAGCCCCUGUCAGAUUCUGGUGAAUCCGCGAAUUCUGCUGUAAAUCCC | 0.38
21 | UAACAGGGGGCCACAGCAGAAGCGUCCACGUCGCAGCCCCUGUCAGAUUCUGGUGAAUCUGCGAACUCUGCAGUAUAUCUC | 0.09
22 | UAACAGGGGGCCACAGCAGAAGCGUCCACGUCGCAGCCCCUGUCAGAUUCUGGUGAAUCUGCGAACUCUGCUGUACAUCUC | 0.09
23 | UAACAGGGGGCCACAGCAGAAGCGUCCACGUCGCAGCCCCUGUCAGAUUCUGGUGAAUCUGCGAAUACUGCUGUAUAUGUC | 0.16
24 | UAACAGGGGGCCACAGCAGAAGCGUCCACGUCGCAGCCCCUGUCAGAUUCUGGUGAAUCUGCGAAUACUGCUGUAUAUCAC | 0.13
25 | UAACAGGGGGCCACAGCAGAAGCGUGCACGUCGCGGCCCCUGUCGGAUUCUGGUGAAUCUGCGAAUUCUGCUGUAUACCUC | 0.63
26 | UAACAGGGGGCCACAGCAGAAGCGUGCACGUCGCGGCCCCUAUCAGAUUCUGGUGAAUCUGCGAAUUCUGCUGUAUAUCUC | 0.08
27 | UAACAGGGGGCCACAGCAGAAGCGUGCACGUCGCAGCCCCUGUCCGAUUCUGGUGAAUCUGCGGAUUCUGCUGUAUAUCUC | 0.09
28 | UAACAGGGGGCCACAGCAGAAGCGUGCACGUCGCAGCCCCUGUCAGUUUCCGGUGAAUCUGCGAAUUCUGCUGUAUAUCUC | 0.08
29 | UAACAGGGGGCCACAGCAGAAGCGUGCACGUCGCAGCCCCUGUCAGUUUCUGGUGAAUCUGCGAAUUCUGCUGCAUAUCUU | 0.29
30 | UAACAGGGGGCCACAGCAGAAGCGUGCACGUCGCAGCCCCUGUCAGAUUCUGGUGGAUCUGCGAAUUCUGCUGUAUAUCAC | 0.08
31 | UAACAGGGGGCCACAGCAGAAGCGUGCACGUCGCAGCCCCUGUCAGAUUCUGGUGAGUCAGCGAAUUCUGCUGUAUGUCUC | 0.11
32 | UAACAGGGGGCCACAGCAGAAGCGUGCACGUAGCAGCCCCUGUCAGAUUCUGGUGAAUCUGCGAAUUUUGCUGUAUAUCCC | 0.24
33 | UAACAGGGGGCCACAGCAGAAGCGUGCACGUCGCAGCCCUUGUCAGAUUCUGGUGAGCCUGCGAAUUCUGCUGUAUAUCUC | 0.11
34 | UAACAGGGGGCCACAGCAGAAGCGUGCACGUCACAGCCCCUGUCAGAUUCUGGUGAAUCUGCGUAUUCUGCUGUAUAUCUC | 0.25
